Screen size: about 310,000 compounds; about 14,000 (4.5%) showed an effect of 50% or more. The effect is printed as a negative number. The list shows a part of the results.
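Further: peak tail current of the secondary pulse compared with the same well before compound.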

In this test the target is human ether-à-go-go-related gene (hERG) potassium channel (human, UniProt Q12809). Briefly: primary screen, population patch clamp on CHO cells stably expressing hERG.
Sequence of human ether-à-go-go-related gene (hERG) potassium channel (Q12809 whole entry, looked up): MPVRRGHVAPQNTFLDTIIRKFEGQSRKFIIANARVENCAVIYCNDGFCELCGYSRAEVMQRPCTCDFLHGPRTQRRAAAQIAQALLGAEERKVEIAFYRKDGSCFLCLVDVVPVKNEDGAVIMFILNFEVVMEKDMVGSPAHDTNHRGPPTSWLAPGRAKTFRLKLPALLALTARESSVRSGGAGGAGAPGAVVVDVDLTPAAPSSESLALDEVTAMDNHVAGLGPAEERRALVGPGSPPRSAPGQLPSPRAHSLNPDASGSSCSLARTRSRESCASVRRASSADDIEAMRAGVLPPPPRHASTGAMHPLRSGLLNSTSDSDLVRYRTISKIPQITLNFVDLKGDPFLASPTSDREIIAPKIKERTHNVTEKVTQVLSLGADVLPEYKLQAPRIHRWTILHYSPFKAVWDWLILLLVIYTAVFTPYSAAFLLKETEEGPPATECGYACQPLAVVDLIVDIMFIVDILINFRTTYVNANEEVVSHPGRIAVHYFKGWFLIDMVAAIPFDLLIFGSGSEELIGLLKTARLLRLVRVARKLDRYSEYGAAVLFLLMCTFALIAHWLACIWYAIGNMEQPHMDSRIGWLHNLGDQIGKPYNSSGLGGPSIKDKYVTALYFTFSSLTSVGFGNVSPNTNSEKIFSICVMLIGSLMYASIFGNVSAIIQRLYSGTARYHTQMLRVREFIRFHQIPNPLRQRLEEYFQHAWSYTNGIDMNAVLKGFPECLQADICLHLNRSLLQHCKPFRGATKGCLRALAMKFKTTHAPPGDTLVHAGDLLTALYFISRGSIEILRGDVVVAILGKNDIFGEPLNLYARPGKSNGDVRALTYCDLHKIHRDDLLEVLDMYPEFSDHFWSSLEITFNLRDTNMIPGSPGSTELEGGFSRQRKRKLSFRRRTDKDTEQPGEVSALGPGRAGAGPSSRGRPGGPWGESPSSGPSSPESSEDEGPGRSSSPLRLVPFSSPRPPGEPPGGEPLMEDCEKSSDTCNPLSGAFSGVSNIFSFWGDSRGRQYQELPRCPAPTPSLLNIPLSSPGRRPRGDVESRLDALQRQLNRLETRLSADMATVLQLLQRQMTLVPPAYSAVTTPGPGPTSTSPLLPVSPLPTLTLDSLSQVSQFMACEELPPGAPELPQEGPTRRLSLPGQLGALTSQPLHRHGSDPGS
As for `O=C(NC1=NCCS1)c1ccc(Cl)cc1`, the “hERG current change (%, negative = inhibition) at 10uM” value turned out to be 14.7%.

As for `CC(OC(=O)CCN=C1NS(=O)(=O)c2ccccc21)C(=O)Nc1ccc(N(C)C)cc1` (stereo not drawn), the “hERG current change (%, negative = inhibition) at 10uM” value is given as 0.875%.

On to `Nc1nc2n(n1)C(=O)CC(c1ccccc1[N+](=O)[O-])N2` (stereo not drawn), for which the “hERG current change (%, negative = inhibition) at 10uM” value was 41.7%. The result for `Cc1cc(NC(=O)CSc2ccccn2)no1` reads 11.3%; that for `CCN1CCCC1CNC(=O)c1ccc(N2CCOCC2)c(NS(=O)(=O)c2ccc(OC)cc2)c1` (stereo not drawn), -24.4%. The result for `Cc1cc(NC(=O)c2ccc(COc3ccccc3Cl)o2)no1` reads 9.63%; that for `CC1CCCCN1CC(=O)c1ccc2cc[nH]c2c1` (stereo not drawn), 16.1%. The result for `CC(C)c1c(Cl)c(O)c(-c2ccccc2)c(=O)n1-c1ccc(F)cc1` reads 11.1%; that for `CCOc1cccc2cc(C(C)=O)oc12`, 31.4%; that for `O=C(CNc1ccc2c(c1)OCO2)N/N=C\c1ccccc1Cl`, 3.98%.

For the compound `CC(=O)c1nnn(-c2cccc(C#N)c2)c1C`, the “hERG current change (%, negative = inhibition) at 10uM” value is given as 21.6%.

Regarding `O=C(NCc1cccnc1)c1nc(-c2ccccc2)n(-c2ccccc2)n1`, the “hERG current change (%, negative = inhibition) at 10uM” value is recorded as -14.7%. The result for `O=C(COC(=O)C1=Cc2ccccc2OC1)NCc1ccco1` reads 31.1%; that for `CC(C)Nc1nc(NC(C)C)nc(SCC(N)=O)n1`, 1.67%. The result for `CCOC(=O)C1=C2NC(=O)c3ccccc3N2C(=O)C1` reads -0.753%; that for `O=C(NCc1ccc2c(c1)OCO2)C1CC(=O)N(c2ccc(O)cc2)C1` (stereo not drawn), -11.5%; that for `C/C(=C\c1ccccc1)CN1CCC(C(=O)N2CCCCC2)CC1.O=C(O)C(=O)O`, -47.5%. Turning to `CCC(CC)NC(=O)c1cccc(Oc2ccccc2)c1`, the “hERG current change (%, negative = inhibition) at 10uM” value is -11.6%. The result for `CC(NC(=O)c1ccc(F)cc1)C1CC2CCC1C2` (stereo not drawn) reads -0.921%. The result for `COC(=O)c1sccc1S(=O)(=O)Nc1ccc(N2CCCCC2)cc1` reads 17.2%; that for `CCOC(=O)C1(Cc2ccccc2C)CCCN(Cc2cc(OC)c(O)c(OC)c2)C1` (stereo not drawn), -39.7%; that for `COc1ccc(-n2nnc3c(SC(C(C)=O)C(=O)N(C)C)ncnc32)cc1` (stereo not drawn), -12.8%. To `CN1CCC(Oc2ccc(Sc3ccccc3)cc2)CC1.Cl` belongs -67%; to `COc1ccc(CNS(=O)(=O)c2ccc3c(c2)CC(C)N3C(=O)C2CC2)cc1` (stereo not drawn), 22.1%. Consider `Cc1ccc(S(=O)(=O)Nc2nccs2)cc1[N+](=O)[O-]`, for which the “hERG current change (%, negative = inhibition) at 10uM” value was 20.7%. To `CCCN1CCN(CCCNC(=O)Cn2nc(-c3ccc(Cl)cc3)ccc2=O)CC1` belongs -50.8%; to `O=C(CN1CCC(n2nnc3cc(F)ccc32)CC1)N1CCc2ccccc2C1`, -58.1%. The result for `Cn1c(=O)n(C)c2cc(NC(=O)COc3ccc(F)cc3F)ccc21` reads -13.6%; that for `CC(=O)NO`, 12.3%. To `O=C(O)c1ccc(-c2ccc(Cl)cc2Cl)o1` belongs -3.71%; to `Cc1cc(-c2ccc(/C=N/n3cnnc3)o2)c([N+](=O)[O-])cc1C`, -9.52%; to `O=C(O)c1ccccc1-n1ncc2c1/C(=C/c1ccc(Cl)cc1)CC2`, 14.9%.

On to `Cc1cccc(C)c1OC1(c2ccccc2)OC(=O)c2ccccc21` (stereo not drawn), for which the “hERG current change (%, negative = inhibition) at 10uM” value amounted to 10.9%. The result for `O=C(c1ccco1)c1cn(Cc2ccccc2)c2ccccc12` reads -6.75%; that for `O=S(=O)(Nc1ncnc2sc3c(c12)CCC3)c1ccc(Cl)s1`, 12%; that for `CN1CCC(N(C)S(=O)(=O)c2ccc(NC(=O)COc3ccc(F)cc3)cc2)CC1`, 0.996%.

Turning to `Cc1ccc(S(=O)(=O)Nc2nc(C)cc(N/N=C/c3ccc(O)cc3)n2)cc1`, the “hERG current change (%, negative = inhibition) at 10uM” value was 16.1%. To `Cc1ccc(C2(c3ccc(C)cc3)CC2C(=O)NC(C)C)cc1` (stereo not drawn) belongs 12.4%; to `O=C(COc1ncnc2ccccc12)Nc1cc(S(=O)(=O)N2CCOCC2)ccc1Cl`, 6.64%; to `CCn1c(SCC(=O)NC2CCCCC2)nnc1-c1cccs1`, 4.45%. The result for `Cc1ccc(C(=O)N2c3ccccc3NC(=O)C2C)cc1` (stereo not drawn) reads 0.849%. The result for `Cc1cc(=O)n2[nH]nnc2n1` reads -14.4%; that for `CC1CCC2(CC1)NC(=O)N(CC(=O)N1CCN(S(=O)(=O)c3ccccc3)CC1)C2=O` (stereo not drawn), -19.3%.

For `CN1C(=O)C(C)(C)N(C(=O)c2cccc([N+](=O)[O-])c2)c2ccccc21`, the “hERG current change (%, negative = inhibition) at 10uM” value is -2.83%.

On to `COc1ccc(S(=O)(=O)N2CCOC2CNC(=O)C(=O)NCCc2ccccc2)cc1` (stereo not drawn), for which the “hERG current change (%, negative = inhibition) at 10uM” value is -18.3%.

The values above are taken from paper PMC4336329 (PLoS ONE, 2015).
